According to PubChem BioAssay AID588342 (National Center for Advancing Translational Sciences (NCATS), 2011):
Hit rate of the full screen: of about 360,000 compounds, about 25,000 (6.9%) were called active. The inconclusive results got no clear call from the source; some entries with a clear call stand among them for comparison. Calls follow the shape of the dose curve; as a rule, active = well fitted inhibition curve with a large enough effect; inconclusive = small, poorly fitted or top-dose-only effect; inactive = flat fitted curve, though single readings scatter. Where the call is inconclusive, the potency comes from a doubtful curve fit.

Target: Luciferin 4-monooxygenase (Photinus pyralis) (UniProt P08659)
Chain of UniProt P08659 (P08659 whole entry, looked up): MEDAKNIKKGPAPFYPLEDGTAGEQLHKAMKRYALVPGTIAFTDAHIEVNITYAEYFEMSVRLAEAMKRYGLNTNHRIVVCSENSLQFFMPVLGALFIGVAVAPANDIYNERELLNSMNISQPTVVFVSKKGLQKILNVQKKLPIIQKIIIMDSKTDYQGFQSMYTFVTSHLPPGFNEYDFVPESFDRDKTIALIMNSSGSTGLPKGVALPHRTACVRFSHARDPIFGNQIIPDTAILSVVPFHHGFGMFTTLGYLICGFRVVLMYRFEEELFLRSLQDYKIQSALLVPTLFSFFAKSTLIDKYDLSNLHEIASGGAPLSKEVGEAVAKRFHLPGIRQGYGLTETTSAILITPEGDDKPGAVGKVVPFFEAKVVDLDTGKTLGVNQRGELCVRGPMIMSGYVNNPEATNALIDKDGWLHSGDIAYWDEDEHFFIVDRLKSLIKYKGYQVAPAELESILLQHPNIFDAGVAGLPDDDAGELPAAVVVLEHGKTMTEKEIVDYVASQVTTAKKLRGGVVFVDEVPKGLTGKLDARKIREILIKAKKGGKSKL
Experiment: qHTS profiling assay for firefly luciferase inhibitor/activator using purifed enzyme and Km concentrations of substrates (counterscreen for miR-21 project); also: nearly all actives have a fitted effect of over 55% in size
Conditions: purified FLuc, luminescence inhibition; series mostly up to 57.5 µM
Summary of the method: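 Purified P. pyralis luciferase (10nM final) with 10uM D-luciferin and 10uM ATP (Km levels) in 50mM Tris acetate pH 7.5, 10mM Mg acetate, 0.01% Tween-20, 0.05% BSA; qHTS 6-point titration, ~60 µM downward; luminescence read.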
Potency is read from the fitted curve at half-maximal effect; tags tell the direction and shape of the fitted curve.

How did the Potency turn out when `O=C(N/N=C1/CCc2ccccc21)C1CC1` was run?
The Potency was inconclusive: 23.9 µM [inhibitor, partial curve].

For `Cc1ccc(C)n1-c1c(C(=O)NCCCN2CCN(c3ccc(F)cc3)CC2)sc2ncccc12`, which Potency is on record?
Its Potency is “inactive”.

Which Potency does the source give for `O=C(Nc1ccc2ccccc2c1)c1ccc(NS(=O)(=O)c2ccc(Br)s2)cc1` here?
The Potency was inconclusive: 10.7 µM [inhibitor, partial curve].

`O=C(c1ccccc1-c1nc(-c2ccccc2Cl)no1)N1CCOCC1` was tested. Which Potency did it give?
The Potency was “inactive”.

How did the Potency turn out when `Cc1ccc(Cl)cc1-n1ncc2c(NCCCn3ccnc3)ncnc21` was run?
The Potency was “inactive”.

`Cc1cc(C)c2nc(NC(=O)C3CCCO3)sc2c1` (stereo not given) was tested. Which Potency did it give?
The Potency was active: 3.79 µM.

For `Cc1ccc(/C(N)=N/OC(=O)c2cc(-c3ccccc3)nc3ccccc23)cc1`, which Potency is on record?
The Potency was active: 13.5 µM.

For `CNC(=O)c1ccsc1NC(=O)c1ccc(Cl)s1`, which Potency is on record?
The Potency was inconclusive: 23.9 µM [inhibitor, single point].

Which Potency does the source give for `O=C(Nc1cccnc1)c1ccc(NS(=O)(=O)c2cccc([N+](=O)[O-])c2)cc1` here?
The Potency was inconclusive: 37.9 µM [inhibitor, partial curve, poor fit].

With `CC(/C=N/NC(=O)c1cc(-c2ccc3ccccc3c2)n[nH]1)=C\c1ccco1` as the compound, how does the Potency read?
The Potency was inconclusive: 30.1 µM [inhibitor, single point].

How did the Potency turn out when `O=c1cc(-c2ccc(F)cc2)nc(SCc2nc(-c3cccc(Cl)c3)no2)[nH]1` was run?
Its Potency is inconclusive: 9.53 µM [inhibitor, partial curve, poor fit].

`O=C1CN(C(=O)/C=C/c2ccccc2F)c2ccccc2N1` was tested. Which Potency did it give?
The Potency was inconclusive: 23.9 µM [inhibitor, partial curve, poor fit].

`COc1cc(NC(=O)c2cccs2)c(OC)cc1NC(=O)CCC(=O)Nc1ccc2ncccc2c1` was tested. Which Potency did it give?
Its Potency is “inactive”.

With `Cc1nonc1C1CCCN1Cc1cn[nH]c1-c1ccc(-c2ccccc2)cc1` (stereo not given) as the compound, how does the Potency read?
The Potency was “inactive”.

With `CCc1ccc(NC(=O)CSc2nccn2-c2cccc(C)c2C)cc1` as the compound, how does the Potency read?
Its Potency is inconclusive: 30.1 µM [inhibitor, partial curve, poor fit].

`Cc1ccc(C2CC(=O)N(Cc3ccccc3)c3c2c(C)nn3-c2nc(C)cc(C)n2)cc1` (stereo not given) was tested. Which Potency did it give?
The Potency was “inactive”.

For `Cc1ccc(OCC(=O)Nc2cc(NC(=O)COc3ccc(C)cc3)cc(C(=O)O)c2)cc1`, which Potency is on record?
The Potency was inconclusive: 23.9 µM [inhibitor, partial curve, poor fit].

`COc1ccc(-c2cn3nc(N4CCC(C(=O)Nc5cccc(OC)c5)CC4)sc3n2)cc1` was tested. Which Potency did it give?
Its Potency is “inactive”.

For `CCOc1ccc(NC(=O)CN(C)C(=O)c2c(-c3c(F)cccc3Cl)noc2C)cc1OCC`, which Potency is on record?
Its Potency is “inactive”.

With `O=C(CCNC(=O)c1ccc(Cl)cc1)NCCC1=CCCCC1` as the compound, how does the Potency read?
Its Potency is inconclusive: 26.9 µM [inhibitor, partial curve].

For `COc1ccc(Cl)c2sc(NC(=O)C3=COCCO3)nc12`, which Potency is on record?
The Potency was inconclusive: 6.01 µM [inhibitor, full curve].

`CCc1c(C)c2ccc(OCC(=O)NCC3CCC(C(=O)O)CC3)c(C)c2oc1=O` (stereo not given) was tested. Which Potency did it give?
The Potency was inconclusive: 23.9 µM [inhibitor, partial curve, poor fit].

For `CCOc1ccc(Sc2cc(C(=O)NC(C)CC)c3ccccc3n2)cc1` (stereo not given), which Potency is on record?
The Potency was “inactive”.

How did the Potency turn out when `CCOc1ccc(-c2nc(CSCC(=O)NC3CC3)c(C)o2)cc1` was run?
The Potency was inconclusive: 23.9 µM [inhibitor, partial curve].

Which Potency does the source give for `Cc1cccc(CNC(=O)C(C)n2nc(C)c3c(C)n(-c4ccccc4)nc3c2=O)c1` (stereo not given) here?
The Potency was “inactive”.

How did the Potency turn out when `O=C(COc1ccc2ccccc2c1)N/N=C/C1CC=CCC1` (stereo not given) was run?
The Potency was inconclusive: 37.9 µM [inhibitor, single point].

How did the Potency turn out when `Cc1ccc(CONC(=O)c2cccc([N+](=O)[O-])c2)cc1` was run?
Its Potency is inconclusive: 13.5 µM [inhibitor, partial curve].

Which Potency does the source give for `Cc1nc2sc(C(=O)Nc3ccc(F)cc3)c(N)c2c(-c2ccc(Br)cc2)c1C(=O)Nc1ccc(Cl)cc1` here?
Its Potency is “inactive”.

With `Nc1ccc(-c2nnc(-c3ccc(N)cc3)o2)cc1` as the compound, how does the Potency read?
The Potency was active: 3.38 µM.

`CCOC(=O)c1sc(Nc2ccccc2)nc1C` was tested. Which Potency did it give?
The Potency was active: 15.1 µM.

Which Potency does the source give for `C(=N\Nc1nc2ccccc2[nH]1)/c1cccc2nccnc12` here?
The Potency was inconclusive: 3.38 µM [inhibitor, partial curve].

`CC(C)(C)C1CCc2c(sc(NC(=O)C3CC=CCC3C(=O)O)c2C#N)C1` (stereo not given) was tested. Which Potency did it give?
The Potency was inconclusive: 37.9 µM [inhibitor, partial curve, poor fit].

How did the Potency turn out when `CC(C)(C)c1csc(NC(=O)c2cccnc2)n1` was run?
Its Potency is inconclusive: 23.9 µM [inhibitor, single point].

`CCCCOc1ccc(C(=O)NCCc2sc(-c3cccc(F)c3)nc2C)cc1` was tested. Which Potency did it give?
The Potency was “inactive”.

With `COC(=O)/C(=C\C(=O)c1ccccc1)Nc1cccc(C(F)(F)F)c1` as the compound, how does the Potency read?
The Potency was inconclusive: 21.3 µM [inhibitor, single point].

For `COc1ccc(NC(=O)c2cc(-c3ccc4c(c3)OCO4)on2)cc1`, which Potency is on record?
Its Potency is “inactive”.

`CCC(=O)Nc1ccc(C(=O)CSc2nc3ccc(C)cc3[nH]2)cc1` was tested. Which Potency did it give?
The Potency was inconclusive: 37.9 µM [inhibitor, partial curve, poor fit].

For `COc1ccc(NC(=O)COC(=O)Cc2c(F)cccc2Cl)cc1`, which Potency is on record?
The Potency was inconclusive: 30.1 µM [inhibitor, single point].

How did the Potency turn out when `CCOc1ccccc1NC(=O)C(C)Sc1nc(-c2ccccc2)c(C#N)c(=O)[nH]1` (stereo not given) was run?
Its Potency is inconclusive: 9.53 µM [inhibitor, partial curve].

With `Cc1c(Cl)sn(-c2ccc(Cl)cc2)c1=O` as the compound, how does the Potency read?
The Potency was active: 8.49 µM.

How did the Potency turn out when `CCN(Cc1ccccc1)C(=O)CCCOc1ccccc1` was run?
The Potency was inconclusive: 26.9 µM [inhibitor, single point].

`O=C1OC(c2ccccc2)=N/C1=C\N1CCCCC1` was tested. Which Potency did it give?
Its Potency is active: 9.53 µM.

With `CO/N=C/c1ccc(Oc2ccc(C)cc2)nc1` as the compound, how does the Potency read?
The Potency was active: 16.9 µM.

How did the Potency turn out when `O=C(c1cc2c(s1)-c1ccccc1OC2)N1CCCC1` was run?
The Potency was active: 12 µM.

How did the Potency turn out when `Fc1ccc(CSc2nnc(-c3ccccn3)o2)cc1` was run?
Its Potency is active: 10.7 µM.

Which Potency does the source give for `COc1cc(/C=N/Nc2ccc(S(N)(=O)=O)cc2[N+](=O)[O-])cc(OC)c1O` here?
The Potency was inconclusive: 6.01 µM [inhibitor, partial curve, poor fit].

`CCCCOc1ccc(C(=O)N2CCCCCC2)cc1` was tested. Which Potency did it give?
The Potency was inconclusive: 19 µM [inhibitor, partial curve].

With `C=CCc1ccc(OC(=O)c2ccccc2)c(OC)c1` as the compound, how does the Potency read?
Its Potency is active: 6.75 µM.

Which Potency does the source give for `N#Cc1ccc(C(=O)Nc2ccn(-c3ccccc3)n2)cc1` here?
The Potency was inconclusive: 30.1 µM [inhibitor, single point].

How did the Potency turn out when `COc1ccc(CCN(C)C(=O)c2c(C)noc2C)cc1OC` was run?
The Potency was “inactive”.

For `Cc1cccc(NC(=O)Cc2ccc(-c3ccccc3)cc2)n1`, which Potency is on record?
Its Potency is inconclusive: 23.9 µM [inhibitor, single point].

For `COc1ccc(OC)c(S(=O)(=O)Nc2cc3c(C(C)=O)c(C)oc3c3ccccc23)c1`, which Potency is on record?
The Potency was inconclusive: 8.49 µM [inhibitor, partial curve, poor fit].

Which Potency does the source give for `CNC(=O)c1csc(-c2ccc(Cl)cc2)n1` here?
The Potency was inconclusive: 21.3 µM [inhibitor, single point].

For `CC(/C=C/c1ccccc1F)=N\NC(=O)c1ccc(Cl)cc1`, which Potency is on record?
Its Potency is “inactive”.

`C/C(O)=C(\N=Nc1cc(C)ccc1O)C(N)=O` was tested. Which Potency did it give?
The Potency was inconclusive: 16.9 µM [inhibitor, partial curve].

`CC(C)c1ccc(CNc2ncccn2)cc1` was tested. Which Potency did it give?
The Potency was active: 13.5 µM.

Which Potency does the source give for `COc1cc(OC)cc(-c2cc(N3C(=O)Nc4ccccc4N3O)n[nH]2)c1` here?
Its Potency is “inactive”.

With `COc1cccc(NC(=O)Nc2ccc3nsnc3c2)c1` as the compound, how does the Potency read?
Its Potency is active: 7.57 µM.

Which Potency does the source give for `CC(Oc1ccc(F)cc1)C(=O)Nc1cc(-c2ccc(F)c(F)c2)no1` (stereo not given) here?
The Potency was “inactive”.

With `COc1ccc(/C=N/NC(=O)c2ccccc2O)cc1CN1CCOCC1` as the compound, how does the Potency read?
The Potency was inconclusive: 21.3 µM [inhibitor, partial curve].

With `O=C(O)c1nc2ccccc2nc1C(=O)O` as the compound, how does the Potency read?
Its Potency is active: 21.3 µM.

For `CCc1ccc(NC(=O)CC2C(=O)N(c3ccc(Cl)cc3)C(=O)N2Cc2cccs2)cc1` (stereo not given), which Potency is on record?
Its Potency is inconclusive: 16.9 µM [inhibitor, partial curve].

With `O=C(O)c1ccccc1SCc1ccc2c(c1)OCO2` as the compound, how does the Potency read?
Its Potency is inconclusive: 37.9 µM [inhibitor, partial curve, poor fit].

With `CN(C)c1ccc(C(=O)c2ccc(O)cc2O)cc1` as the compound, how does the Potency read?
The Potency was active: 10.7 µM.

How did the Potency turn out when `N#CC1=C2SCN(c3ccccc3)CN2C(=O)CC1c1cccs1` (stereo not given) was run?
Its Potency is inconclusive: 16.9 µM [inhibitor, single point].

Which Potency does the source give for `O=C(Nc1cccc(F)c1)c1ccc2c(c1)OCCO2` here?
Its Potency is active: 4.78 µM.

`Cc1cc(C(=O)CSc2nnc(C3CC3)n2C2CC2)c(C)n1C(C)C` was tested. Which Potency did it give?
The Potency was active: 12 µM.

How did the Potency turn out when `COC(=O)c1cc(S(=O)(=O)NCc2ccc(S(N)(=O)=O)cc2)oc1C` was run?
Its Potency is “inactive”.

`COc1ccc(OC)c(NC(=O)Cn2c(CCC(=O)O)ccc2-c2ccc(C)cc2)c1` was tested. Which Potency did it give?
The Potency was inconclusive: 26.9 µM [inhibitor, single point].

With `N#C/C(=C\c1ccc(Cl)cc1)c1nc(-c2ccco2)cs1` as the compound, how does the Potency read?
The Potency was inconclusive: 6.75 µM [inhibitor, full curve].

How did the Potency turn out when `S=c1nc2ccccc2c2nc(-c3cccnc3)[nH]n12` was run?
Its Potency is inconclusive: 37.9 µM [inhibitor, single point].

How did the Potency turn out when `COc1ccccc1/C=C/C=N/N1CCN(c2ccccn2)CC1` was run?
Its Potency is inconclusive: 37.9 µM [inhibitor, partial curve, poor fit].

`COc1cc(CCCN2CCNC[C@@H]2C(C)O)cc(OC)c1OC` (stereo not given in full) was tested. Which Potency did it give?
The Potency was “inactive”.

Which Potency does the source give for `COc1ccc(-c2csc(NC(=O)c3ccccc3S(C)(=O)=O)n2)cc1` here?
The Potency was inconclusive: 37.9 µM [inhibitor, partial curve, poor fit].

For `COc1ccc(C(=O)N2CCC(C(=O)O)CC2)c2ccccc12`, which Potency is on record?
Its Potency is “inactive”.
